The list shows a part of the results. Rule as the data show it: active = 3.2 or more and inactive = the rest. Only a few entries rise above the background.

Sequences and labels used below:
B1: ANK2_Y3907 (peptide)
chain: KIIRRYVSSEG
B2: ANTXR2_Y381 (peptide)
chain: VDASYYGGRGV
B3: ALDOB_Y223_V222F (peptide)
chain: NDHHFYLEGTL
B4: ALK_Y1282_Y1278S (peptide)
chain: ISRASYYRKGG
B5: ANGPTL3_Y417 (peptide)
chain: NLNGKYNKPRA
B6: ANGPTL3_Y417_Y417C (peptide)
chain: NLNGKCNKPRA
B7: ALOX12B_Y318_Y318C (peptide)
chain: IYLADCRIMEG
B8: ALX3_Y181_R183W_YF (peptide)
chain: HFPDVYAWEQL
B9: ALPK2_Y1975 (peptide)
chain: LIQRNYKLAAQ
B10: ALK_Y1278_R1275Q_YF (peptide)
chain: MAQDIYRASFF
B11: ANK1_Y735_L733I (peptide)
chain: KTKIGYSPLHQ
B12: ALOX12B_Y318_YF (peptide)
chain: IFLADYRIMEG
B13: ALK_Y1278_R1275Q (peptide)
chain: MAQDIYRASYY
B14: ALK_Y1092_YF (peptide)
chain: TIMTDYNPNFC
B15: ALK_Y1278_A1274T_YF (peptide)
chain: MTRDIYRASFF
B16: ANTXR2_Y380_YF (peptide)
chain: TVDASYFGGRG
B17: ANGPTL7_Y145 (peptide)
chain: RISGVYKLPPD
B18: ANTXR2_Y380_Y381C (peptide)
chain: TVDASYCGGRG
B19: ALK_Y1283_YF (peptide)
chain: FRASFYRKGGC
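Also: displayed peptides selected on beads carrying the immobilized SH2 domain, with library peptides lacking any tyrosine serving as negative controls.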

For the first experiment, the target named is SHP2 C-SH2 domain E139D. In words: enrichment score (SH2-bound / input frequency) (ratio); bacterial display of known human phosphotyrosine sites (pTyr-Var adds point mutants) read by sequencing; higher = stronger binding; tyrosines were phosphorylated by kinases first. To be noted: peptide library: pTyr-Var.
For the molecule B1, the enrichment score was inactive: 0.424.

For the molecule B2, the enrichment score is inactive: 0.651.

Regarding B3, the enrichment score is inactive: 1.2.

With B4, the enrichment score was inactive: 0.271.

Turning to B5, the enrichment score was inactive: 1.27.

Turning to B6, the enrichment score is inactive: 0.754.

Consider B7, for which the enrichment score was inactive: 0.713.

B8: the enrichment score was inactive: 1.1.

As for B9, the enrichment score is inactive: 0.679.

B10: the enrichment score is inactive: 1.21.

Take B11: the enrichment score was inactive: 0.75.

Turning to B12, the enrichment score was inactive: 2.35.

For B13, the enrichment score was inactive: 0.802.

As for B14, the enrichment score is inactive: 0.823.

For B15, the enrichment score was inactive: 0.778.

Consider B16, for which the enrichment score was inactive: 0.766.

For the molecule B17, the enrichment score is inactive: 0.726.

Consider B18, for which the enrichment score was inactive: 0.66.

On to B19, for which the enrichment score is inactive: 0.337.

A further experiment deals with SHP2 C-SH2 domain wild-type. The experiment is described as above. To be noted: peptide library: pTyr-Var.
Consider B1, for which the enrichment score is inactive: 0.411.

In the case of B2, the enrichment score was inactive: 0.596.

With B3, the enrichment score was inactive: 1.18.

Take B4: the enrichment score was inactive: 0.295.

With B5, the enrichment score is inactive: 1.24.

Consider B6, for which the enrichment score is inactive: 0.836.

On to B7, for which the enrichment score is inactive: 0.796.

With B8, the enrichment score was inactive: 1.17.

In the case of B9, the enrichment score was inactive: 0.527.

For the molecule B10, the enrichment score is inactive: 0.848.

For B11, the enrichment score was inactive: 0.803.

As for B12, the enrichment score is inactive: 2.06.

For B13, the enrichment score is inactive: 0.76.

With B14, the enrichment score is inactive: 0.896.

In the case of B15, the enrichment score is inactive: 0.787.

Consider B16, for which the enrichment score was inactive: 0.66.

With B17, the enrichment score was inactive: 0.887.

For the molecule B18, the enrichment score is inactive: 0.621.

Consider B19, for which the enrichment score is inactive: 0.274.

Another experiment deals with SHP2 N-SH2 domain L43F. Described as above. To be noted: peptide library: pTyr-Var.
Take B1: the enrichment score is inactive: 0.273.

On to B2, for which the enrichment score was inactive: 0.509.

Consider B3, for which the enrichment score was inactive: 1.26.

B4: the enrichment score was inactive: 0.234.

On to B5, for which the enrichment score was inactive: 1.16.

For B6, the enrichment score was inactive: 0.972.

In the case of B7, the enrichment score was inactive: 0.924.

Consider B8, for which the enrichment score is inactive: 1.18.

Consider B9, for which the enrichment score is inactive: 0.62.

With B10, the enrichment score was inactive: 0.993.

For the molecule B11, the enrichment score is inactive: 0.774.

In the case of B12, the enrichment score is inactive: 2.7.

With B13, the enrichment score was inactive: 0.926.

Turning to B14, the enrichment score is inactive: 0.882.

In the case of B15, the enrichment score is inactive: 0.99.

B16: the enrichment score was inactive: 0.764.

With B17, the enrichment score was inactive: 0.815.

Consider B18, for which the enrichment score is inactive: 0.828.

For the molecule B19, the enrichment score is inactive: 0.238.

The next experiment concerns the target SHP2 N-SH2 domain T42A. The description is as above. To be noted: peptide library: pTyr-Var.
As to B1, the enrichment score was inactive: 0.351.

On to B2, for which the enrichment score was inactive: 0.533.

Take B3: the enrichment score is inactive: 1.18.

Regarding B4, the enrichment score was inactive: 0.269.

Take B5: the enrichment score is inactive: 1.15.

Turning to B6, the enrichment score was inactive: 0.72.

With B7, the enrichment score is inactive: 0.678.

In the case of B8, the enrichment score is inactive: 1.14.

As to B9, the enrichment score was inactive: 0.438.

On to B10, for which the enrichment score was inactive: 0.871.

Regarding B11, the enrichment score was inactive: 0.569.

Consider B12, for which the enrichment score was inactive: 2.24.

For B13, the enrichment score was inactive: 0.567.

With B14, the enrichment score is inactive: 0.739.

For B15, the enrichment score was inactive: 0.728.

As for B16, the enrichment score was inactive: 0.62.

In the case of B17, the enrichment score was inactive: 0.72.

B18: the enrichment score was inactive: 0.535.

On to B19, for which the enrichment score was inactive: 0.303.

A further experiment deals with SHP2 N-SH2 domain T52S. The description is as above. To be noted: peptide library: pTyr-Var.
Regarding B1, the enrichment score is inactive: 0.39.

On to B2, for which the enrichment score was inactive: 0.579.

With B3, the enrichment score is inactive: 1.23.

Regarding B4, the enrichment score is inactive: 0.26.

As for B5, the enrichment score was inactive: 0.98.

As for B6, the enrichment score was inactive: 0.828.

In the case of B7, the enrichment score was inactive: 0.957.

For B8, the enrichment score was inactive: 1.49.

As to B9, the enrichment score is inactive: 0.545.

Regarding B10, the enrichment score is inactive: 0.985.

As to B11, the enrichment score was inactive: 0.792.

Regarding B12, the enrichment score is inactive: 1.79.

Take B13: the enrichment score is inactive: 0.751.

Take B14: the enrichment score was inactive: 0.756.

Regarding B15, the enrichment score was inactive: 1.09.

With B16, the enrichment score is inactive: 0.767.

Turning to B17, the enrichment score was inactive: 0.901.

Consider B18, for which the enrichment score was inactive: 0.574.

Turning to B19, the enrichment score was inactive: 0.295.

Another experiment concerns the target SHP2 N-SH2 domain wild-type. The description is as above. The settings on record: peptide library: pTyr-Var.
For B1, the enrichment score was inactive: 0.383.

As for B2, the enrichment score was inactive: 0.657.

Take B3: the enrichment score is inactive: 1.18.

Consider B4, for which the enrichment score was inactive: 0.293.

As to B5, the enrichment score is inactive: 1.4.

As to B6, the enrichment score was inactive: 0.768.

Regarding B7, the enrichment score is inactive: 1.3.

B8: the enrichment score was inactive: 1.08.

Regarding B9, the enrichment score was inactive: 0.475.

Consider B10, for which the enrichment score was inactive: 1.09.

For the molecule B11, the enrichment score is inactive: 1.01.

Take B12: the enrichment score was inactive: 2.15.

For B13, the enrichment score is inactive: 0.86.

As to B14, the enrichment score is inactive: 1.04.

In the case of B15, the enrichment score is inactive: 1.03.

B16: the enrichment score was inactive: 0.84.

Turning to B17, the enrichment score is inactive: 0.917.

Consider B18, for which the enrichment score was inactive: 0.703.

In the case of B19, the enrichment score was inactive: 0.209.

The values above are taken from the supplement of paper PMC10369915.
